# Assay results: publication PMC10588329 (Protein Science : A Publication of the Protein Society, 2023)
# Biological target: the molecule itself
# Assay: mass photometry
protein,measurement,value
Human wild-type CaMKII α (CaMKII^WT) (enzyme) not shown,stoichiometry N,12 subunits
